According to PubChem BioAssay (NCI):
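All cell lines were grown in 96-well plates and treated with compound for 48 hours. The concentration for 50% growth inhibition is given as GI50. At the TGI there is no net growth.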

System: NCI-H322M lung
Assay: growth of human tumour cells (NCI), 48 h

In the case of `C=CCn1c(SCC(=O)Nc2ccc(C(=O)/C=C/c3cc(OC)c(OC)c(OC)c3)cc2)nnc1-c1c[nH]c2ccccc12`, the GI50 is reported as 3.65 µM and the TGI is reported as 18.8 µM.
